The text below walks through data of the RNAGym collection of RNA variant scans (doi:10.1093/nar/gkz1192).

The source gives no read counts; variants with many changes may rest on few reads.

Sequences and labels used below:
B1: CPEB3 Ribozyme (parent)
chain: UAACAGGGGGCCACAGCAGAAGCGUUCACGUCGCAGCCCCUGUCAGAUUCUGGUGAAUCUGCGAAUUCUGCUGUAUAUCUC

In this series the parent is B1. Description: self-cleavage, relative activity (ratio to wild type); higher = more cleavage; in vitro, sequencing. In short, it runs like this:
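After error-prone PCR and barcoding, CPEB3 ribozyme mutant libraries were transcribed with T7 RNA polymerase at 37°C for 5 hours, then given 15 min with DNase I before an EDTA stop, and they cleaved during both steps. Reverse transcription with template switching preceded Illumina sequencing. Relative activity divides a variant's cleaved/total read fraction by the unmutated ribozyme's. At least 5 reads were required per variant, and three batches were averaged.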
On to G9A U26C U41C U60A, for which the self-cleavage was 0.24.
The value for G9A G10A A28G C39U G55C was 0.05.
As to G9A C23U A35G U58C G70A, the self-cleavage came out at 0.13.
The value for G9A C29A G36U U48C U49C was 0.06; that for G9A U26C U31A A47U U49A A57G was 0.07; that for G9A G19U U26C A35G U43A U80A was 0.06.
Next, G9A C11U U26C A56G U80A: 0.05.
Take G9A U43C A56U A57G U60A: the self-cleavage was found to be 0.08.
The value for G9A C29U U51C was 0.13; that for G9A G30A A35C U49A G53C A57G was 0.06.
Take G9A C32U A64U: the self-cleavage turned out to be 0.45.
For the variant G9A C29U A64G, the self-cleavage amounted to 0.08.
Next, G9A C14A U49G U78C: 0.25; G9A U25A U72C U78C: 0.05; G9A G46A G55U: 0.07.
The value for G9A G30U A45G U60A was 0.12; that for G9A C29G U54C A56C U72A U78C was 0.03.
The value for G9A U41A U48C C71A was 0.05; that for G9A U41A U43C was 0.15; that for G9A U26C U41A C62U was 0.28.
As to G9A U41A U80C, the self-cleavage worked out at 0.15.
Next, G9A U43C A45C U48C U69A G73A: 0.06; G9A U25A A28G G53A U58C: 0.04.
For the variant G9A G24U U51A A56G U78C, the self-cleavage came to 0.05.
The value for G9A G10A A18G U72A was 0.12.
The value for G9A C11G U69C U72A A77G was 0.05.
The value for G9A U26C U31C U54C U67A was 0.1; that for G9A G22A U26A A28G was 0.21.
In the case of G9A U41A U54A, the self-cleavage amounted to 0.05.
The value for G9A C34G A35G U60C A65U was 0.06; that for G9A U26C A28G A45G A47G U48C was 0.06.
The value for G9A U43A G55A A57G U60A C62U was 0.08.
The value for G9A U31C C40U U78C was 0.06.
For G9A U48C U54A A56G A64U, the self-cleavage came to 0.05.
The value for G9A G10A A15G A47G was 0.33.
As to G9A C12G A15U A18U A45G, the self-cleavage was determined as 0.11.
In the case of G9A U43A A56G U58G, the self-cleavage stood at 0.05.
Next, G9A G22A U25A U67C: 0.04; G9A U26C C38A: 0.06.
Next, G9A C14A G33A U41G A56G: 0.08; G9A G24A A45G: 0.17.
Next, G9A U26C A47U A56G: 0.11.
For the variant G9A U26G A65G C79U, the self-cleavage worked out at 0.02.
The value for G9A G33A U43A A75G was 0.06.
Turning to G9A G19U C40A U51A U74C U78C, the self-cleavage came out at 0.13.
The value for G9A U41A U67A U76C was 0.14; that for G9A C27A A57G A77G was 0.16.
Next, G9A U31C U54C U69A: 0.04; G9A C17U C29G U49C: 0.25; G9A U26C G53U C68A: 0.14.
The value for G9A U26A A35G G36C U60G A64G U80A was 0.04; that for G9A U25A U78C was 0.15.
Take G9A U26C G30A A47G U49C U67A: the self-cleavage turned out to be 0.04.
Next, G9A C23G U31C U66A U72C: 0.04; G9A U26C U69C U78C: 0.03.
The value for G9A G10A U26G A35G C44A U48G U78C was 0.04.
Next, G9A G19C C40G A77G: 0.14; G9A G16C G42C A57U: 0.05.
Regarding G9A U25C U31G U72C, the self-cleavage amounted to 0.15.
The value for G9A C29U U41C U51A A77G was 0.09; that for G9A C68A U78C was 0.36.
As to G9A C29U A45G U60G U69C, the self-cleavage worked out at 0.09.
The value for G9A G16U U41C G42A U43C U66C U78C was 0.04.
Next, G9A C34U C38A U51A U69A: 0.05; G9A G24A A35U A47G U54C: 0.03; G9A U31A U80C: 0.09.
The value for G9A C71U U78A was 0.31.
Turning to G9A U26C A56G, the self-cleavage was found to be 0.11.
Next, G9A G10A U58A A65G U67C U72C U78A: 0.03; G9A C39U G52C U60C A65G U69G U80A: 0.03; G9A C38U U43C A56G A57G U67A: 0.04.
Next, G9A C17G U26G U41A U80C: 0.06.
Next, G9A C29G C38A U69A: 0.05; G9A U31C G42A U43C: 0.06.
Take G9A U26C A35G A45G: the self-cleavage is 0.14.
The value for G9A C23U U31A A35U U43A U80C C81U was 0.04; that for G9A U25C G33A A77G was 0.05; that for G9A C12A A57C A75U was 0.15.
Next, G9A C11G U60C U66C: 0.06; G9A U25C U41C U78C U80A: 0.08; G9A C17U U78C: 0.11.
The value for G9A U43A C44A U58A was 0.14; that for G9A G19U A20G U26C A45U U54A was 0.05; that for G9A G19U A21G U41A U54A was 0.08.
Take G9A U25A A56U U78C: the self-cleavage worked out at 0.16.
G9A C17U A28G: the self-cleavage was found to be 0.08.
On to G9A U26C U41C A45G U54C U72A, for which the self-cleavage stood at 0.04.
Next, G9A U43A U80C: 0.39; G9A C11U C32U U60C U72A: 0.04.
The value for G9A U43C A47C U48C U60A A64G was 0.12; that for G9A C27U U49C A75G was 0.35; that for G9A G24A C32G C40U U41A U54A was 0.03.
Next, G9A G16A C23A U26C A45U A47U A56G: 0.04; G9A U41C U54A U80C: 0.16.
G9A C39U C71U: the self-cleavage stood at 0.23.
The value for G9A C34U C40G A45U U49A A57G U78C was 0.03; that for G9A G55U U72C U74A was 0.52.
Next, G9A U31C A57U U67A: 0.11; G9A G16A G53U U54G A65U: 0.04.
The value for G9A U25C A64G U78C U80C was 0.17; that for G9A G22U A45G U69G was 0.06; that for G9A C40U A45G A64G was 0.07.
As for G9A U26C A57C U72A, the self-cleavage came to 0.05.
Next, G9A G33C U60C U78C: 0.05.
For the variant G9A G42A U54C A65U, the self-cleavage was 0.21.
Next, G9A U25C U26C A56U A65G C68A: 0.03; G9A C17U C29G C44A U72A: 0.05.
Next, G9A C32A C40U A57G: 0.17; G9A C39A U74C A75G: 0.09.
The value for G9A C12U A13U G63U C81U was 0.33; that for G9A C11G U25C U54C U72A was 0.05.
As for G9A C40A G63A A64C A77U, the self-cleavage was found to be 0.03.
Next, G9A U25A U69A G70C: 0.11; G9A C17G A20G U43C A56G: 0.08; G9A G10A G30C A65G U80A: 0.21.
The value for G9A U31C U48C U54C was 0.12; that for G9A G33C G42U was 0.12.
Next, G9A C17G U41A A65G U72C U80C: 0.13.
For the variant G9A C29U A35U A45G, the self-cleavage amounted to 0.05.
The value for G9A U41C U43A A57G was 0.15; that for G9A G10C A20G U25C U51A was 0.25.
The value for G9A C44U A56G was 0.05; that for G9A U31C U41A A45G was 0.06; that for G9A G22U U26C was 0.11.
As to G9A U49A U67C, the self-cleavage is 0.14.
The value for G9A C23U U48C was 0.29; that for G9A G10A C11U U69A was 0.19; that for G9A U43C U72C was 0.3.
The value for G9A G33C C39U U76C was 0.11; that for G9A U31G A47G was 0.05; that for G9A G22A U26A U49A was 0.14.
As to G9A C12U A35G U43C U49C A56U, the self-cleavage is 0.04.
The value for G9A U26C A35G G36A U69A was 0.04.
The value for G9A C11U U26C A56G was 0.11.
Next, G9A G16A U31C C40A U80C: 0.35; G9A U43C A45U U54C A56U U69A U72A: 0.04; G9A U43C U76C: 0.18.
As to G9A U26C U58A A65U U69C, the self-cleavage came to 0.21.
The value for G9A G19C U80C was 0.11; that for G9A C17A U31C A35U A47U U66C U72A was 0.03.
Regarding G9A U43A A47U U51A U76C, the self-cleavage stood at 0.17.
G9A C23A A64G C81A: the self-cleavage worked out at 0.04.
For G9A C11U C34U C40G A45U U49A A57G, the self-cleavage was found to be 0.09.
The value for G9A U26C A35G U58C U74A was 0.06.
Next, G9A U31C A35U U66C U67C: 0.05.
Next, G9A C11U A64U: 0.05; G9A U41A A45G A64G U72C: 0.21.
Turning to G9A G10C G22U A28U U60C A65G U69C, the self-cleavage came out at 0.09.
The value for G9A U25C U43G A57C U72C U78C was 0.08.
The value for G9A U41A U51G A65G G70A was 0.09; that for G9A U25A A56G A57G was 0.32; that for G9A G46A A47G U49A U58C G70A U78C was 0.05.
Next, G9A C34A U66C U69A U72C U74C: 0.1; G9A U49C A64G: 0.18; G9A U25A A28G A35G U69C: 0.13.
On to G9A G33A U69C U78G U80A, for which the self-cleavage was 0.05.
Next, G9A U43A U51G A64U U72A U78A: 0.08.
In the case of G9A U25A U31C C40U U51A, the self-cleavage amounted to 0.17.
Next, G9A U31C U54C: 0.15.
Next, G9A C11U G33A G55U U80A: 0.05; G9A U26C A47G: 0.08; G9A U49A A64U A65G U66C A75G: 0.03.
Consider G9A C40G U43C U54A U66C U69C U78C, for which the self-cleavage stood at 0.05.
The value for G9A C23G G33A U51C U54C U67C U72C was 0.04; that for G9A C14A U41C U76C U80A was 1.09; that for G9A U26C A28U C34U A47G was 0.04.
The value for G9A C34U C40G A45U U49A A65U was 0.04.
